According to the antibiotic and cytotoxicity screens of Wong et al. (2023):
The list shows a part of the results.

Key:
[1] = system: HSkMC (human skeletal muscle cells); assay: cytotoxicity call (relative viability < 0.9); settings: 10 µM
[2] = system: HepG2; assay: cytotoxicity call (relative viability < 0.9); settings: 10 µM
[3] = system: S. aureus RN4220; assay: growth inhibition call (relative growth <= 0.2); settings: 50 µM

Compound	cytotoxicity call [1]	cytotoxicity call [2]	growth inhibition call [3]
C[C@@H]1CCCCO[C@@H](CN(C)S(=O)(=O)c2ccc(Cl)cc2)[C@H](C)CN([C@@H](C)CO)C(=O)c2cc(NC(=O)c3ccccc3)ccc2O1	inactive	inactive	inactive
C[C@@H]1CN([C@H](C)CO)C(=O)c2cc(NS(=O)(=O)c3ccccc3)ccc2O[C@@H](C)CCCCO[C@@H]1CN(C)Cc1ccc(Cl)c(Cl)c1	active	active	inactive
C(=N\Cc1cccnc1)/c1c2ccccc2cc2ccccc12	inactive	active	inactive
O=c1c(-c2nn[nH]n2)coc2ccccc12	inactive	inactive	inactive
C=CC[C@H](CC(=O)NCCO)C(=O)N[C@H](COC(=O)[C@H](CC=C)CC(=O)OC(C)(C)C)Cc1c[nH]c2ccccc12	inactive	inactive	inactive
C[C@H]1CN([C@@H](C)CO)C(=O)c2cccc(NC(=O)Nc3ccc(F)cc3)c2O[C@@H]1CN(C)Cc1ccc(Oc2ccccc2)cc1	inactive	inactive	inactive
C[C@H](CO)N1C[C@H](C)[C@@H](CN(C)Cc2ccc(C(=O)O)cc2)Oc2ccc(NC(=O)CCCN(C)C)cc2C1=O	inactive	inactive	inactive
C[C@@H]1CN([C@@H](C)CO)C(=O)c2cccc(NC(=O)Nc3ccc4c(c3)OCO4)c2O[C@H]1CN(C)Cc1ccc(C(=O)Nc2ccccc2N)cc1	inactive	inactive	inactive
CCc1cccc2c3c([nH]c12)C(CC)(CC(=O)O)OCC3 (stereo not drawn)	inactive	inactive	inactive
N#Cc1ccc(O)c(O)c1	inactive	active	inactive
C[C@H]1CCCCO[C@@H](CN(C)C(=O)Nc2cccc3ccccc23)[C@@H](C)CN([C@@H](C)CO)C(=O)c2cc(NS(C)(=O)=O)ccc2O1	inactive	inactive	inactive
O=C(/C=C/c1ccc(O)c(O)c1)O[C@@H]1C[C@](O)(C(=O)O)C[C@@H](OC(=O)/C=C/c2ccc(O)c(O)c2)[C@H]1OC(=O)/C=C/c1ccc(O)c(O)c1	inactive	inactive	inactive
CCS(=O)(=O)Nc1ccc2c(c1)C(=O)N(C)[C@H]1CC[C@@H](CC(=O)NCCOC)O[C@H]1CO2	inactive	inactive	inactive
COCCOC(=O)N1C(=O)[C@@]2(c3cc(C#Cc4ccc(OC)cc4)ccc31)[C@H](C(=O)N1CCN(c3ncccn3)CC1)[C@H]1C(=O)O[C@H](c3ccccc3)[C@H](c3ccccc3)N1[C@@H]2c1ccccc1OCCO	inactive	inactive	inactive
C=CC[C@@H](CC(=O)N(CCO)Cc1ccccc1)C(=O)N[C@@H](COC(=O)[C@H](CC=C)CC(=O)OC(C)(C)C)Cc1c[nH]c2ccccc12	inactive	inactive	inactive
CC(C)NC(=O)Nc1ccc2c(c1)C(=O)N([C@H](C)CO)C[C@@H](C)[C@@H](CN(C)Cc1ccc(-c3ccccc3)cc1)O2	inactive	inactive	inactive
C=CC[C@H](CC(=O)N[C@@H](CO)Cc1ccccc1)C(=O)N[C@@H](COC(=O)[C@@H](CC=C)Cc1ccc(F)cc1)Cc1c[nH]c2ccccc12	inactive	inactive	inactive
C[C@H](CO)N1C[C@H](C)[C@H](CN(C)S(=O)(=O)c2cn(C)cn2)Oc2ncc(C#Cc3ccc(C(F)(F)F)cc3)cc2C1=O	inactive	inactive	inactive
C[C@@H]1CN([C@@H](C)CO)C(=O)c2cccc(NS(=O)(=O)c3ccc(F)cc3)c2O[C@@H]1CN(C)S(=O)(=O)c1ccc(F)cc1	inactive	active	inactive

Compound	cytotoxicity call [1]	cytotoxicity call [2]	growth inhibition call [3]
CO[C@@H]1CN(C)C(=O)c2ccc(NS(C)(=O)=O)cc2OC[C@H](C)N(C(=O)C2CCOCC2)C[C@H]1C	inactive	inactive	inactive
C[C@@H]1CN([C@H](C)CO)C(=O)Cc2cc(NS(=O)(=O)c3ccc(Cl)cc3)ccc2O[C@H]1CN(C)Cc1ccc(C(F)(F)F)cc1	active	active	inactive
O=C(CO)N1C[C@H]2C[C@@H]1C[C@@H]2Oc1cccnc1	inactive	inactive	inactive
Cc1ccc(-c2ccc3c(c2)O[C@H](CN(C)C(=O)CN(C)C)[C@H](C)CN([C@H](C)CO)S3(=O)=O)cc1	inactive	inactive	inactive
CO[C@@H]1CN(C)C(=O)c2ccc(NS(C)(=O)=O)cc2OC[C@H](C)N(C(=O)CN(C)C)C[C@H]1C	inactive	inactive	inactive
COc1ccc(S(=O)(=O)Nc2ccc3c(c2)C(=O)N([C@H](C)CO)C[C@@H](C)[C@H](CN(C)C(=O)Nc2ccc(F)cc2)OCCCC[C@@H](C)O3)cc1	inactive	inactive	inactive
CO[C@H]1CN(C)C(=O)c2ccc(NC(=O)C3CC3)cc2OC[C@H](C)N(C(=O)CN2CCOCC2)C[C@H]1C	inactive	inactive	inactive
CN(C)CCn1cnc2ccccc2c1=O	inactive	inactive	inactive
C[C@@H]1CN([C@@H](C)CO)S(=O)(=O)c2ccc(C#Cc3cccc(F)c3)cc2O[C@H]1CN(C)C(=O)CN1CCOCC1	inactive	inactive	inactive
O=C(NO)c1cccc(C(=O)N/N=C/[C@H](O)[C@@H](O)[C@H](O)[C@H](O)CO)c1	inactive	inactive	inactive
C[C@H]1CN([C@@H](C)CO)C(=O)c2cccc(NC(=O)NC3CCCCC3)c2O[C@H]1CN(C)Cc1ccc(Oc2ccccc2)cc1	inactive	inactive	inactive
C[C@H](CO)N1C[C@H](C)[C@H](CN(C)C(=O)C2CCCCC2)OCCCC[C@H](C)Oc2ccc(NC(=O)Nc3ccc(F)cc3)cc2C1=O	inactive	inactive	inactive
C[C@H]1CN([C@@H](C)CO)C(=O)c2cccc(NC(=O)C3CCCCC3)c2O[C@H]1CN(C)S(=O)(=O)c1cn(C)cn1	inactive	inactive	inactive
CO[C@H]1CN(C)C(=O)c2ccc(NC(=O)C3CC3)cc2OC[C@@H](C)N(C(=O)C2CCOCC2)C[C@H]1C	inactive	inactive	inactive
C[C@@H]1CN([C@@H](C)CO)C(=O)CCCn2nncc2CO[C@H]1CN(C)C(=O)c1cc(-c2ccccc2)on1	inactive	inactive	inactive
[O-][NH2+]N1CCCCCCC1	inactive	inactive	inactive
C[C@@H]1CCCCO[C@H](CN(C)C(=O)CCC(F)(F)F)[C@H](C)CN([C@@H](C)CO)C(=O)c2cc(NC(=O)Nc3ccccc3)ccc2O1	inactive	inactive	inactive
C[C@H]1CN([C@@H](C)CO)C(=O)Cc2cc(NC(=O)CCN3CCOCC3)ccc2O[C@H]1CN(C)Cc1ccccc1	inactive	inactive	inactive
C[C@@H]1CN([C@H](C)CO)C(=O)Cc2cc(NC(=O)c3ccncc3)ccc2O[C@@H]1CN(C)Cc1ccc(-c2ccccc2)cc1	active	active	inactive

Compound	cytotoxicity call [1]	cytotoxicity call [2]	growth inhibition call [3]
C[C@H](CO)N1C[C@H](C)[C@@H](CN(C)C(=O)CCCN(C)C)OCc2cn(nn2)CCCC1=O	inactive	inactive	inactive
CCc1nnc(N)o1	inactive	inactive	inactive
C[C@H](CO)N1C[C@H](C)[C@@H](CN(C)C(=O)c2ccc3c(c2)OCO3)Oc2cc(-c3ccncc3)ccc2S1(=O)=O	inactive	inactive	inactive
COc1cc2c(cc1OC)C([C@H](C(=O)N(CCc1ccc(OC)c(OC)c1OC)CCc1ccc(OC)c(OC)c1OC)c1ccccc1)=NCC2	inactive	inactive	inactive
CN[C@@H]1[C@@H](O)[C@@H](O[C@@H]2[C@@H](O)[C@H](O[C@H]3OC(CN)=CC[C@H]3N)[C@@H](N)C[C@H]2N)OC[C@]1(C)O	inactive	inactive	inactive
C[C@H](O)C#Cc1ccc2c(c1)O[C@H](CN(C)C(=O)C1CCCCC1)[C@H](C)CN([C@@H](C)CO)S2(=O)=O	inactive	inactive	inactive
COc1ccc(S(=O)(=O)Nc2ccc3c(c2)C(=O)N([C@H](C)CO)C[C@H](C)[C@H](CN(C)S(=O)(=O)c2ccc(OC)cc2)O3)cc1	inactive	inactive	inactive
C[C@@H]1CN([C@H](C)CO)C(=O)c2cc(NC(=O)c3ccncc3)ccc2O[C@H]1CN(C)Cc1ccc(C(=O)O)cc1	inactive	inactive	inactive
C[C@H](CO)N1C[C@H](C)[C@@H](CN(C)C(=O)Nc2ccccc2)Oc2ccc(NC(=O)Nc3ccc(C(F)(F)F)cc3)cc2CC1=O	inactive	inactive	inactive
Cc1ccc(S(=O)(=O)Nc2ccc3c(c2)C(=O)N([C@@H](C)CO)C[C@@H](C)[C@H](CN(C)C(=O)C2CCCCC2)OCCCC[C@H](C)O3)cc1	inactive	inactive	inactive
COc1cccc(S(=O)(=O)N(C)C[C@@H]2Oc3ncc(-c4cccc(C(=O)N(C)C)c4)cc3C(=O)N([C@H](C)CO)C[C@@H]2C)c1	inactive	inactive	inactive
CSC[C@H](N)C(=O)O	inactive	inactive	inactive
C[C@@H]1CN([C@H](C)CO)C(=O)c2cc(NS(C)(=O)=O)ccc2O[C@@H](C)CCCCO[C@H]1CN(C)S(=O)(=O)c1cccs1	inactive	inactive	inactive
CCOC(=O)[C@@H](N)Cc1ccc(O)c(O)c1	inactive	inactive	inactive
Cc1ccc(S(=O)(=O)N2C[C@H](O)COC[C@@H]3O[C@H](CC(=O)NCc4ccc(Cl)c(Cl)c4)CC[C@H]32)cc1	inactive	active	inactive
Nc1ncn([C@@H]2O[C@H](CO)[C@@H](O)[C@H]2O)c(=O)n1	active	active	inactive
C[C@@H]1CN([C@@H](C)CO)C(=O)c2cc(C#Cc3ccccc3F)cnc2O[C@H]1CN(C)C(=O)Cc1cccnc1	inactive	inactive	inactive
C[C@H]1CN([C@@H](C)CO)C(=O)c2cccc(NS(C)(=O)=O)c2O[C@@H]1CN(C)S(=O)(=O)c1ccc(Cl)cc1	inactive	inactive	inactive
